Test results reported in the RNAGym collection of RNA variant scans (doi:10.7554/elife.90254).
Read counts are not given, so values of variants with three or more changes are uncertain.

B1: LINE1-full (parent)
chain: UACGUAGGUGGUUUUCCCCUGAUAGUGCUAAGGGGGCCUGGAAGUUUGGACUGGGCAGAGCUCAACACAGCGUGGCAAAGUGGCUGUGGCUAGACUGCCUCUCUGGAUUCCUCGUCACUCAGCAGGGCAUCUCUGAGAGAAAUGCC

Variants of: B1
Test: self-cleavage, relative activity (ratio to wild type); higher = more cleavage; in vitro, sequencing; the parent is a self-cleaving ribozyme

Variant	self-cleavage
U26C A42G A129G	0.57
U20C U52C A92G	0.41
U52C A78G U81A G114A G135A	0.33
U15A C17U U132C	1.24
A22G C61U U134C	0.14
U5A U73A U96C A141G	0.07
U15C G48A U112C	1.04
A77U U87C U91C U109A U112G U115A	0
U1G A2G U12G G105A	0.71
U9G U62C A79G U134A	0.1
U9A U29A U96C	0.34
U9A C51A U102C	1.19
U1C U9A A138G	1.5
A67G A138C A141G	0.45
A22G A42G A50G	0.34
A6C A50G U62A U81A	0
U9C U45C U85C U91A A129G	0
A24G A50G U52A	0.95
A6G G54A A57U U81C A129G	0.33
A22U G35A A43G G97A	0.06
U46C U52G A65U A107G	0
U87A U96C U100C	0.17
A31C A65G A78G A79U C128U	0.11
A31G U39C U46C A124U	1.84

Variant	self-cleavage
U85G C99U A124G	0.11
U14C U73C U96A U130A U134A A141G	0
G8A A24U U134C	0.96
U13C A22G A50G U115A	0.66
C3A U12C C71A	0.2
A2G U14C U81A A94G C103A	0.56
A43U U47A C63A U112C A121G	0.05
U46C A59U G70C U109C U132C A140G	0.24
U20A A57G U109C U115C	0
U39A U73A U102C G126U A129G	2.02
U13C A124U A140G	0.89
U15C C19U C37G A129G	1.56
U85A U102C U134A	0.04
G89C U100C A141G	0.01
U20C G40A A65G U108C	0.03
G82A U87C G89A A141G	0.02
U12C C51U A138G A140U	1.62
A31G G33A U132C A138G	0.54
U9C U47A U115A U134A	0.79
U20C U45C A142G	1.33
U15C U20C G21A A107G U115C	0
U73C A142G U143C	1.84
U23C U26A A121U	0.86
U12C U102C U115A	0.18

Variant	self-cleavage
G4C C19U U26C A43G U115C G125A	0.6
G7A U12A U13A U26A U39C U52C C90U U104G U119A	0.12
U39C C90A A121G	0.03
U9A G35U A67U U130A	0.1
U12C A42G U143C	0
U14G G49U U87C	0.14
G33U A43G A50G U112A U130C	0
G55A U130C A140G	0.43
A42G U46C A65G G97A A138G A141C A142G	0.19
U20C A67U A78C A117U	0.84
A31U U134A A140G	0.38
G33U G60C U81A A141G	0.02
U46A U52C A138G A141G	1.15
A69G U87A A136U	0.03
U45C G83A C84A U85C	0.16
U14C U15A A43G A77U	0.88
C3U G40A U62A A69G	0.06
U46A U47C A59G U81A	0.25
A6U U52C U87A	0.41
U14C G34A U91A A117U A142U	0.35
A69U U102C A141G	0.04
U26C C28U A77G G83A U112A A121C A138U	0.65
U9A U45C G55A A79G	0.25
A30G A64G U112A	0.36

Variant	self-cleavage
U45C A92U A136U	0.62
A77G U102C G122C	2.9
U15G U29C A117G	0
A67U A78G U112C	0
U15A U23C G54A A69G U130C A140C A142U U143A	0
U13C U62A A67U A121C	0.03
A64G U130C A138U	0.27
U52A U108C A129U U130C G137U	0.61
A2G U12G U13C A22U A117G	2.42
U87C A121U A140G	0.22
G35A A69U U115C	0.05
U62C A64G U100C	0.2
A43G U52A A121C	1
U9C U26C G32U U62A	0.22
U46C A78G U85C	0.46
A69G U108C U112A	0.66
U39A A57G G86A U102A U112C	0.04
U47C A78G A129G	1.49
A31U G33A U47C A77G A107G A142G	0.54
A50C A141G U143C	0.53
U104C A138G A140U	1.2
U13C U20C G27A	0.49
U81A A107G U130C	2.51
U5C G44A A79G G93U	0.1

Variant	self-cleavage
G21U G34A U109A	1.01
U20C A57U U108C	0.18
U14C U26C U52A U96C	0.14
A31U U62C U143A	0.05
A31U A57G C113U A124G	1.08
A43G U45C U47C	0
U15C G74A A77G U87C A121U A142U	0.3
C28G A43G A50G U104C	0
G4A A43G U112C	1.46
G53U A65G U130C	0.05
U9C U12C U15C A140G	1.38
U26C G40A A43G A77G	1.69
G83A U108C A141U	1.57
A64G A79U A129U	0.39
U29A A121U U132A	1.54
U5C A50G A138U	0.26
U1G C18A A43G A142G	1.24
U46G U102A A121G U132C	0.57
U23C G83A G144A	0.91
A22U U29C U73C U132C	0.77
G11A A22G A136G	0.75
A22G U96C C116A	0.13
U12G A22G G34A U46C U52C U87C G88A	0.27
A30G U39A G49U	0.8

Variant	self-cleavage
A43G U46C C68U U102C A136G	0.15
U20A G58A A64G U87C A136U	0.05
A43U G97A U102A	0.19
A31U A57G A67U G83U	0.13
U9C A43G C56U A138G	0.18
U9A U52C A136U	1
U14A U134C A138G A140G	0
U13C G97U G114A A136G A142G	0.05
U46C U62A C63U C98A U119C	0.01
U26C U46G C116U	1.3
A77G A78G U134C	2.91
U20C G55A U87C	0.13
U9G U87A U119C A141G	0.47
U23C U29C U52C A69U G70U A77G	0.1
U12C G53A A92U U119C	0.74
U9C U39G U115C	1.79
U1C A64U U112C U143C	0.3
U13C A59U U104C	1.65
U13C A64G U73A	0.37
U14C U23C A77C A121U	1.06
A24G U47A C131U A138G	0.86
G8A U47C U52C	1.36
A59G U132C A141G	0.07
C19A A22G A77G A138G A141G U143A	2.51

Variant	self-cleavage
U14C U20C A22G	0.37
U20A G35A A57G U104A U132A	0.28
U26A A57G A124G	0.07
U47A U81C U109G	0
A64G U102C C118U A124G	0.36
U9C A65U U102A	0.42
U15C G55A A79G A138G	0.27
A22U C63U A124G	0.19
U14C U62C U96A U115A	0.28
U1C A2G U14C A117G A121G A140G	1.15
U46A A59U A67G A107G A136G A138G	0
A65G U73C U87A	0
U14C A67U U108C	0.06
A6G A77U A92U	0.87
G35A U73A A77C U102C	1.01
A2G U108C A117G	0
U62A A65C U130G	0.04
U47C U112C U119C A140G	1.84
U26C G125U A138G	1.05
U1C A64U U81A	0.29
C3A G8A A59G	0.08
U108A A117U U130C	1.91
A24G A30G A77G	0.51
